Source: the supplement of paper PMC11417369
The list shows a part of the results.

Test system: PfHDP1 homeodomain (GST-tagged)
Assay: gcPBM binding intensity (ln(normalized median fluorescence intensity)); higher = stronger DNA binding
Outline: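 Alexa488 anti-GST antibody, scanned at 488 nm, detected GST-tagged P. falciparum DNA-binding domains that had been expressed in E. coli and incubated for 1 h on an Agilent 4 × 180k array. The array carried primer-extended double-stranded 36-bp intergenic genomic probes and negative controls. Binding intensity is the highest Masliner-normalised natural-log median intensity across replicate spots of either orientation of each probe.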

| Sequence | gcPBM binding intensity (ln) |
| --- | --- |
| TAAACAGAAGCACATACACACACTCAAAAAAAAAAA [CACACA_site3051] | 6.46 |
| AATATTTATAAATTTACACACACACGGGTGAACATA [CACACA_site6979] | 6.75 |
| TTTAATTCCATAAGTAAACACACAAATGCCAAAATT [CACACA_site9049] | 6.94 |
| ATTCTAAATTAAAATACACACATATATACATAATAT [CACACA_site2792] | 6.72 |
| CAATTTGGTGTACAGGTGCACATGCCTCACGATAAA [GTGCAC_site9650] | 9.16 |
| AAAAAAAAAAAAAAATGTACATATTAAGTATAATTA [XGTACX_site4616] | 6.23 |
| GAAAAATGTAAATACATATATGTACACAAATATATA [GTGCAC_negctrl_site557] | 6.59 |
| TTAGCTCAATTTTTGGGTACACACAAATGTATAATA [XGTACX_site5003] | 6.59 |
| TATAGTTTTATTATTTATGTGTTAAAATTATACAAG [TGCATGCA_negctrl_site246] | 6.17 |
| CATACCATACATAAAACACACAAAATTTACATAATA [CACACA_site3100] | 6.64 |
| TTCCTCTTAATATGTGCACACTAAATTATAACATAA [CACACA_site3260] | 11.1 |
| TTCTGCAGCAATGTTTTTTTTAAATATTTATATGGT [CACACA_negctrl_site1815] | 6.51 |
| AAAAAAATAACAAAGTGTACTTTTATATTTTACATA [XGTACX_site8954] | 5.78 |
| ACCCATTTTAATTTAGTGCACATTTTACCTTTATAC | 10.1 |
| GCTAGTTTTTTTTGGCGTACAGTACCGGTTTACTTT [XGTACX_site2606] | 6.57 |
| AAAAAAAAATATCACACACACATAAATATAAACCAA [CACACA_site2279] | 6.98 |
| AGGCACTTATAATAATGTACATAAATAAAAAGAAAA [XGTACX_site6037] | 6.73 |
| TAAAACATCAAGGGGTGTACAAAAAAGATGAACAGG [XGTACX_site6929] | 6.81 |
| AAAAAAAAAAAAACTACACACATAAAATATATTGTG [CACACA_site805] | 6.4 |
| AGAGCATAATAAAACACACACATACATACATATATA [CACACA_site935] | 8.5 |
| ATTGGGTTCATCAGCACACACAACATCATGTAATAA [CACACA_site5093] | 6.38 |
| TATAAATATATATGTACACACATATACATGTTGAAT [CACACA_site3118] | 6.69 |
| TATAAACATAAATATACACACAAACATCTATGTATT [CACACA_site4804] | 6.52 |
| TATGTATGCCTGTTTTGTACTTAAGAAAATGTTGCT [XGTACX_site8443] | 6.34 |
| AAAAAAAAAAAAAAAAGTACATAATATAAAATCTAA [XGTACX_site6019] | 6.32 |
